In all, about 360,000 compounds went through this assay and about 6,000 (1.7%) were called active. Inconclusive means that the source gave no clear call. Such entries were picked first, then a sample of the others. Calls follow the shape of the dose curve; as a rule, active = well fitted cell-killing curve with a large enough effect; inconclusive = small, poorly fitted or top-dose-only effect, or effect the other way; inactive = flat fitted curve, though single readings scatter. Potencies of inconclusive entries are left out as doubtful fits.
Assay: qHTS for induction of synthetic lethality in tumor cells producing 2HG: qHTS for the HT-1080-NT fibrosarcoma cell line;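 also: NT is the 2HG producing partner of a matched IDH1 knockdown line; nearly all actives have a fitted effect of over 55% in size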;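 as to activity, negative = less viability: 0% = DMSO-treated cells and -100% = media-only wells without cells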
Details: HT-1080-NT fibrosarcoma viability, CellTiter-Glo ATP luminescence, 48 h; activity, negative = less viability: at 46.1 µM (top of the series) unless noted
Summary of the method: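 HT-1080-NT fibrosarcoma cells (2HG-overproducing), 750 cells/well in RPMI with 5% FBS, dosed after 2 h and incubated 48 h at 37C. CellTiter-Glo luminescence normalized to DMSO and no-cell wells; concentration-response curves fitted and classed.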
In the case of `COc1ccc(-c2cc(-c3ccccc3O)[nH]n2)cc1OC`, the Potency is reported as inconclusive [cytotoxic, single point]. With `O=C(Nc1oc2ccc(Cl)cc2c(=O)c1-c1ccc(F)cc1)c1ccco1` the Potency was “inactive”. With `CC(C)Oc1ccc(C(CCNCc2ccc(O)cc2)c2ccccc2)cc1` (stereo unspecified) the Potency was inconclusive [cytotoxic, single point]. For `OC(c1cccc(Cl)c1)c1ncc(-c2cccc(C(F)(F)F)c2)[nH]1` (stereo unspecified), the Potency was inconclusive [cytotoxic, partial curve]. In the case of `Cc1ccccc1C(=O)Nc1ccccc1C(=O)NCC(C)C`, the Potency is reported as “inactive”. In the case of `CCN1CCN(c2cc(C)c3cc(NC(=S)N(C)Cc4ccccc4)ccc3n2)CC1`, the Potency is reported as inconclusive [cytotoxic, single point]. With `O=c1c2ccccc2nc(CSc2nnnn2-c2ccccc2)n1-c1ccccc1Cl` the Potency was “inactive”. In the case of `CN(CCc1ccccc1)C(C(=O)Nc1ccc2c(c1)OCCO2)c1ccnc2ccccc12` (stereo unspecified), the Potency is reported as inconclusive [cytotoxic, partial curve, poor fit]. In the case of `O=C(CSc1nc(=O)n(CCN2CCOCC2)c2c1CCC2)Nc1ccc(OC(F)(F)F)cc1`, the Potency is reported as inconclusive [cytotoxic, single point]. In the case of `Cc1ccccc1C(=O)NNC(=O)C1CCN(c2ncccn2)CC1`, the Potency is reported as inconclusive [rising, partial curve]. For `C=CC[C@H](CC(=O)N(CCO)Cc1ccccc1)C(=O)N[C@H](COC(=O)[C@@H](CC=C)Cc1ccc(F)cc1)Cc1c[nH]c2ccccc12`, the Potency was inconclusive [cytotoxic, single point]. With `COc1ccc(OC)c(C(=O)c2c(C)oc3cc(Br)c(O)c(CN(C)C)c23)c1` the Potency was “inactive”. With `CCn1c2ccccc2c2cc(NC(=O)c3cc(OC)cc(OC)c3)ccc21` the Potency was active: 1.3 µM. For `NC1=NC(=O)/C(=C\c2cccnc2)S1`, the Potency was “inactive”. For `CCCCNC(=O)C1(C)CCCCN1C(=O)c1cc(C#N)cs1` (stereo unspecified), the Potency was “inactive”. For `CC(c1ccccc1)N1CCC(CNC(=S)Nc2cccc(Cl)c2)C1` (stereo unspecified), the Potency was active: 18.4 µM. In the case of `O=C(N/N=C/C=C/c1ccccc1)c1n[nH]c2c1CCC2`, the Potency is reported as active: 1.84 µM. For `Cc1cc(C(=O)N/N=C/c2cc([N+](=O)[O-])cc(C)c2O)n[nH]1`, the Potency was inconclusive [cytotoxic, partial curve]. For `O=C(CCC(=O)OCC(=O)c1ccccc1)Nc1cccc(Cl)c1`, the Potency was inconclusive [rising, partial curve]. With `CCCCn1ccc(O)c(Cc2ccc(F)cc2)c1=O` the Potency was inconclusive [rising, full curve]. In the case of `Cc1occc1C(=O)N/N=C/c1ccc(-c2ccccc2)cc1`, the Potency is reported as active: 9.2 µM. With `Cc1[nH]c2c(C)cccc2c1CCNC(=O)c1ccc2c(c1[N+](=O)[O-])C(=O)c1ccccc1C2=O` the Potency was active: 16.4 µM. In the case of `COc1cccc(-c2cc3nc(-c4ccccc4)cc(N4CCC5(CC4)OCCO5)n3n2)c1`, the Potency is reported as inconclusive [cytotoxic, single point]. In the case of `CCC(C)NS(=O)(=O)c1ccc(N)cc1` (stereo unspecified), the Potency is reported as inconclusive [rising, single point]. In the case of `Cc1ncoc1C(=O)NC1CCCc2c1cnn2-c1ccc(C(C)(C)C)cc1` (stereo unspecified), the Potency is reported as inconclusive [cytotoxic, full curve, poor fit]. For `S=C1NC[C@H](CC2CCCCC2)N1CCc1cccc2ccccc12`, the Potency was “inactive”. With `CCOc1cc(/C=N/NC(=O)c2ccncc2)cc(Cl)c1OS(C)(=O)=O` the Potency was “inactive”. In the case of `Cc1ccc(S(=O)(=O)Nc2ccc3cn[nH]c3c2)c(C)c1`, the activity, negative = less viability is reported as inactive: -4.22% [at 9.24 µM]. For `O=C(c1cccs1)N1CCC(c2nc3c(nnn3Cc3c(Cl)cccc3Cl)c(=O)[nH]2)CC1`, the Potency was inconclusive [cytotoxic, single point]. In the case of `Cc1ccc(C)c2nc3sc(C(=O)N4CCOCC4)c(N)c3cc12`, the Potency is reported as active: 4.11 µM. With `Cc1cc(C)nc(N/N=C/c2ccccc2OCc2ccc(Cl)cc2)n1` the Potency was “inactive”. For `CCOC(=O)C1=C(COc2ccc(C)cc2)NC(=O)NC1c1cc(C)ccc1C` (stereo unspecified), the Potency was “inactive”. For `Clc1cc(Cl)cc(Nc2ccccc2CN(C/C=C/c2ccc3c(c2)OCO3)Cc2ccccc2)c1`, the Potency was “inactive”. In the case of `Cc1cc(C)c2cc(C=O)c(Cl)nc2c1`, the Potency is reported as inconclusive [cytotoxic, single point]. With `COc1cccc(/C=N/Nc2snc(SC)c2C#N)c1` the Potency was inconclusive [cytotoxic, single point]. For `Cc1onc(-c2ccccc2)c1C(=O)Nc1ncc([N+](=O)[O-])s1`, the Potency was inconclusive [cytotoxic, partial curve, poor fit]. With `CN(C(=O)C1Cc2c(-c3ccccc3Oc3ccccc3)ccnc2O1)c1ccccc1` (stereo unspecified) the Potency was inconclusive [cytotoxic, single point]. In the case of `CCCNC(=O)c1noc2c1CCc1ccccc1-2`, the Potency is reported as inconclusive [rising, full curve, poor fit]. In the case of `CC(=O)Nc1ccc(C(=O)N2CCCCC2c2cc(C(=O)NCc3ccccc3)no2)cc1` (stereo unspecified), the Potency is reported as inconclusive [rising, single point]. For `CC(O)(P(=O)(O)O)P(=O)(O)O`, the Potency was inconclusive [rising, single point]. With `O=Cc1cccnc1SCc1ccccc1` the Potency was inconclusive [cytotoxic, single point]. With `COc1ccc(S(=O)(=O)N(Cc2ccccc2)c2ccccc2C(=O)N2CCOCC2)cc1` the Potency was active: 23.1 µM. In the case of `NC(=O)c1cc2ccccc2oc1=NCc1ccccc1`, the Potency is reported as “inactive”. For `Cc1cc(C(=O)OCC(=O)N2c3ccccc3NC(=O)C2(C)C)c(C)n1-c1ccccc1`, the Potency was inconclusive [cytotoxic, single point]. In the case of `CN(C)c1ccc(C=Cc2nccc3ccccc23)cc1`, the Potency is reported as inconclusive [cytotoxic, single point]. For `CC(=O)Nc1ccc(S(=O)(=O)N2CCN(Cc3nc4sc(C)c(C)c4c(=O)[nH]3)CC2)cc1`, the Potency was inconclusive [cytotoxic, partial curve].
Potency is read from the fitted curve at half-maximal effect; tags tell the direction and shape of the fitted curve.
